# Test results from the supplement of paper PMC12217912.
# This is one part of the list. Sequences were assembled here from the parent chain. Values near 0.05 are background.
# B1: TEV protease; numbered along this chain (parent)
# chain: MGESLFKGPRDYNPISSSICHLTNESDGHTTSLYGIGFGPFIITNKHLFRRNNGTLVVQSLHGVFKVKDTTTLQQHLVDGRDMIIIRMPKDFPPFPQKLKFREPQREERICLVTTNFQTKSMSSMVSDTSCTFPSGDGIFWKHWIQTKDGQCGSPLVSTRDGFIVGIHSASNFTNTNNYFTSVPKNFMELLTNQEAQQWVSGWRLNADSVLWGGHKVFMVKPEEPFQPVKEATQL
# Variants of: B1
# Test: raw area under fraction-flipped curve 0-4 h after induction (AUC4h, not background-subtracted), DNA-recorder readout of cleavage of the substrate (dimensionless); higher = more cleavage of the substrate by the protease variant
# Details: temperature: 34 °C; time window: 0-4 h after rhamnose induction
# Protocol: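 In vivo DNA recorder in E. coli TOP10(DE3) ΔrhaA at 34 °C. Each TEVp single-site mutant (parent TEVp 0) is paired with a single-site variant of the 7-mer TEVs (canonical ENLYFQ|S). The substrate sits between flexible linkers in a Bxb1-sfGFP-TEVs-SsrA fusion, so cleavage stabilises Bxb1 and speeds flipping of a recombination array, read by NGS. The value is the raw area under the fraction-flipped curve over 0-4 h after rhamnose induction (AUC4h), with ≥20 reads per time point. It is not background-subtracted; inactive controls average about 0.047.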
# 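Also: Bxb1 expression induced with 0.2% (w/v) L-rhamnose at OD600 near 0.5, cultures sampled hourly, flipped fraction per protease–substrate barcode pair counted by paired-end Illumina sequencing.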
Variant,area with substrate ENLYFAS,area with substrate ENLYFCS,area with substrate ENLYFES,area with substrate ENLYFFS,area with substrate ENLYFGS,area with substrate ENLYFIS,area with substrate ENLYFKS,area with substrate ENLYFLS,area with substrate ENLYFMS,area with substrate ENLYFNS,area with substrate ENLYFPS,area with substrate ENLYFRS,area with substrate ENLYFSS,area with substrate ENLYFTS,area with substrate ENLYFVS,area with substrate ENLYFYS,area with substrate ENLYFDS,area with substrate ENLYFHS,area with substrate ENLYFWS
MGESLFKGPRDYNPISSSICHLTNESDGHTTSLYGIGFGPFIITNKHLFRRNNGTLVVQSLHGVFKVKDTTTLQQHLVDGRDMIIIRMPKDFPPFPQKLKFREPQREERICLVTTNFQTKSMSSMVSDTSCTFPSGDGIFWKHWIQTKDGQCGSPLVSTRDGFIVGIHSASNFTNTNNYFTSVPKNFMELLTNQEAQQWVSGWRLNADSVLWGGHKVFMVQPEEPFQPVKEATQL [K221Q],0.0499,0.0613,0.0801,0.0648,0.0872,0.0542,0.0665,0.0788,0.0607,0.075,0.0615,0.0486,0.0944,0,0.0789,0.0488,,,
MGESLFKGPRDYNPISSSICHLTNESDGHTTSLYGIGFGPFIITNKHLFRRNNGTLVVQSLHGVFKVKDTTTLQQHLVDGRDMIIIRMPKDFPPFPQKLKFREPQREERICLVTTNFQTKSMSSMVSDTSCTFPSGDGIFWKHWIQTKDGQCGSPLVSTRDGFIVGIHSASNFTNTNNYFTSVPKNFMELLTNQEAQQWVSGWRLNADSVLWGGHKVFMVKPEEPWQPVKEATQL [F226W],0.0656,0.0604,0.0666,0.0703,,0.0565,0.0636,0.0564,0.0767,0.0736,0.0566,0.0359,0.0665,0.0611,0.0566,0.0584,0.0735,0.0567,0.0516
MGESLFKGPRDYNPISSSICHLTNESDGHTTSLYGIGFGPFIITNKHLFRRNNGTLVVQSLHGVFKVKDTTTLQQHLVDGRDMIIIRMPKDFPPFPQKLKFREPQREERICLVTTNFQTKSMSSMVSDTSCTFPSGDGIFWKHWIQTKDGQCGSPLVSTRDGFIVGIHSASNFTNTNNYFTSVPKNFMELLTNQEAQQWVSGWRLNADSVLWGGHKVFMVKPEEPFQPVKEATIL [Q234I],0.0665,0.0698,0.0633,,0.055,0.0537,0.0851,0.0329,0.067,0.0683,,0.0637,,0.0411,0.0611,0.0636,,0.0576,0.0583
MGESLFKGPRDYNPISSSICHLTNESDGHTTSLYGIGFGPFIITNKHLFRRNNGTLVVQSLHGVFKVKDTTTLQQHLVDGRDMIIIRMPKDFPPFPQKLKFREPQREERICLVTTNFQTKSMSSMVSDTSCTFPSGDGIFWKHWIQTKDGQCGSPLVSTRDGFIVGIHSASNFTNTNNYFTSVPKNFMELLTNQEAQQWVSGWRLNADSVLWGGHKVFMVKPEEPFQPVKEATKL [Q234K],0.0569,,0.0826,0.0476,0.0633,0.0554,0.0648,0.0605,0.0768,0.0477,0.0584,0.0589,0.0571,0.0577,0.031,0.0681,0.0488,0.0454,0.0532
MGESLFKGPPDYNPISSSICHLTNESDGHTTSLYGIGFGPFIITNKHLFRRNNGTLVVQSLHGVFKVKDTTTLQQHLVDGRDMIIIRMPKDFPPFPQKLKFREPQREERICLVTTNFQTKSMSSMVSDTSCTFPSGDGIFWKHWIQTKDGQCGSPLVSTRDGFIVGIHSASNFTNTNNYFTSVPKNFMELLTNQEAQQWVSGWRLNADSVLWGGHKVFMVKPEEPFQPVKEATQL [R10P],,0.0641,0.0691,0.0536,,0.0589,0.0821,,0.0649,,0.0526,0.0765,,0.0677,,,0.0541,0.0544,0.0623
MGENLFKGPRDYNPISSSICHLTNESDGHTTSLYGIGFGPFIITNKHLFRRNNGTLVVQSLHGVFKVKDTTTLQQHLVDGRDMIIIRMPKDFPPFPQKLKFREPQREERICLVTTNFQTKSMSSMVSDTSCTFPSGDGIFWKHWIQTKDGQCGSPLVSTRDGFIVGIHSASNFTNTNNYFTSVPKNFMELLTNQEAQQWVSGWRLNADSVLWGGHKVFMVKPEEPFQPVKEATQL [S4N],,0.0301,0.0556,0.063,,0.0527,0.0788,,0.0617,0.0629,0.0554,0.0821,0.062,0.0596,,0.0541,0.0434,0.0636,0.0436
MGESLFKGPRDYNPISSSICHLTNESDGHTTSLYGIGFGPFIITNKHLFRRNNGTLVVQSLHGVFKVKDTTTLQQHLVDGRDMIIIRMPKDFPPFPQKLKFREPQREERICLVTTNFQTKSMSSMVSDTSCTFPSGDGIFWKHWIQTKDGQCGSPLVSTRDGFIVGIHSASNFTNTNNYFTSVPKNFMELLTNQEAQQWVSGWRLNADSVLWGGHKVFMVKPEEPFQPVMEATQL [K230M],0.058,0.0644,0.08,0.0656,,0.0569,,0.0619,0.0666,0.0561,0.0635,0.0555,0.067,0.0602,,0.064,,,0.054
MGESLFKGPRDYNPISSSICHLTNESDGHTTSLYGIGFGPFIITNKHLFRRNNGTLVVQSLHGVFKVKDTTTLQQHLVDGRDMIIIRMPKDFPPFPQKLKFREPQREERICLVTTNFQTKSMSSMVSDTSCTFPSGDGIFWKHWIQTKDGQCGSPLVSTRDGFIVGIHSASNFTNTNNYFTSVPKNFMELLTNQEAQQWVSGWRLNADSVLWGGHKVFMVKPEEPFQPVEEATQL [K230E],0.0596,,0.0563,0.07,,0.0511,0.0651,0.0462,,,0.0617,0.0404,,0.04,,,0.0701,0.0518,0.0642
